Source: ChEMBL document CHEMBL1201862, “PubChem BioAssay data set” (2004)
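Dose response: 5 concentrations. Exposure: 48 h. Format: 96-well plates. Endpoint: linear interpolation; highest concentration if not reached. GI50 is the concentration that inhibits growth by half.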 The source made the active and inactive calls. No stated cut-off is given here; in the data, active = GI50 up to about 1.1 µM and inactive = higher.

The compounds below were run on NCI-H322M (assay: growth of human tumour cells (NCI), 48 h).
In the case of `O=[N+]([O-])c1cc(C2ON=C(c3ccccc3)N2C23CC4CC(CC(C4)C2)C3)ccc1Cl` (configuration not stated), the GI50 is reported as inactive: > 100 µM. For `Cc1cn(CCCCCOC(=O)NC(CCCNC(N)=O)C(=O)O)c(=O)[nH]c1=O` (configuration not stated), the GI50 was inactive: > 100 µM. For `COC(=O)[C@H](C)NC(=O)[C@H](CSC)N1C(=O)N[C@@H](C(C)C)C1=O`, the GI50 was inactive: > 100 µM. For `CCc1ccccc1NC(=O)C(=O)C(C#N)c1ccccc1Cl` (configuration not stated), the GI50 was inactive: > 100 µM. `Nc1ccc(Cc2ccc(N)c(C(=O)O)c2)cc1C(=O)O` was tested, and the GI50 was inactive: > 100 µM. For `CC(C)c1cccc(C(C)C)c1NC(=O)C(=O)C(C(=O)c1ccc2ccccc2c1)C1OC(=O)c2ccccc21` (configuration not stated), the GI50 was inactive: > 100 µM. For `COc1cc(N(CCC#N)CCC#N)ccc1C(=N/NC(=O)c1cc(Br)ccc1O)/N=N/c1ccc(C)cc1`, the GI50 was inactive: 19 µM. In the case of `COc1ccccc1NC(=O)C(=O)C1C(=O)Nc2ccccc2[S+]1[O-]` (configuration not stated), the GI50 is reported as inactive: > 100 µM. For `O=C1c2ccccc2N2OC3(N4CCCC4)CCCC3C12c1ccccc1` (configuration not stated), the GI50 was inactive: > 100 µM. `COc1ccc2c(c1)C(=O)/C(=C/c1ccccc1)C2` was tested, and the GI50 was inactive: 84.7 µM. With `CC12ON=C(c3ccccc3)N1C=CN1C(c3ccccc3)=NOC12` (configuration not stated) the GI50 was inactive: > 100 µM. For `O=S1(=O)CCC2=CC(C(F)(F)F)=CC(C(F)(F)F)=CN21`, the GI50 was inactive: 2.51 µM. For `CC(C)(C)OC(=O)NCC(=O)N1CCCN(C(=O)CNC(=O)OC(C)(C)C)CC1`, the GI50 was inactive: > 100 µM. For `Cn1ccc(C(=O)NCCOCCNC(=O)c2ccn(C)c(=O)c2O)c(O)c1=O`, the GI50 was inactive: > 100 µM. `OCCN1CCN2C=C(C3CCCC4N(CCO)CCN34)CCC21` (configuration not stated) was tested, and the GI50 was inactive: > 100 µM. With `N#Cc1c(-c2ccc([N+](=O)[O-])cc2)cc(-c2ccc(Nc3ccnc4cc(Cl)ccc34)cc2)[nH]c1=O` the GI50 was inactive: > 100 µM. In the case of `CN/C(N)=N/N=C1/C(=O)Nc2ccccc21`, the GI50 is reported as inactive: > 100 µM. In the case of `O=P1(c2ccccc2)c2ccccc2CCc2ccccc21`, the GI50 is reported as inactive: 53.2 µM. `CC(=O)NNc1nc(C)c(C(=O)/C=C/c2ccccc2Cl)s1` was tested, and the GI50 was inactive: > 100 µM. In the case of `CCN(CC)Cc1cc(Nc2c3ccccc3nc3c2[nH]c2ccccc23)ccc1O`, the GI50 is reported as inactive: 1.49 µM. `O=C1/C(=C/c2ccccc2O)N=C(c2ccccc2)N1C1Nc2cc3c(cc2S1)NC(N1C(=O)/C(=C/c2ccccc2O)N=C1c1ccccc1)S3` (configuration not stated) was tested, and the GI50 was inactive: 66.5 µM. With `COC(=O)C(=O)C(C(=O)C(=O)Nc1ccc(Cl)cc1Cl)c1nc2ccc(Cl)cc2nc1O` (configuration not stated) the GI50 was inactive: > 100 µM. `C(=N\c1ccc2c(c1)Cc1ccccc1-2)/c1ccccn1` was tested, and the GI50 was inactive: > 100 µM. In the case of `CC(=N/NC(=S)N(C)C)/C(=N\NC(=S)N(C)C)c1ccccc1`, the GI50 is reported as inactive: 2.21 µM. `CC12NC(=C(C#N)C#N)C(C#N)=C3NC(N)=C(C#N)C(=C31)Oc1ccccc12` (configuration not stated) was tested, and the GI50 was inactive: 35.3 µM. With `CC(=O)OC1CCC2(C)C(CCC3C4CC=C(C5(C)OCCO5)C4(C)CCC32)C1` (configuration not stated) the GI50 was inactive: 33.7 µM. For `CS(=O)(=O)NNS(=O)(=O)c1ccc(Cl)cc1`, the GI50 was inactive: > 100 µM. In the case of `COC(=O)c1nn(-c2ccccc2)c(=O)cc1N=[N+]=[N-]`, the GI50 is reported as inactive: > 100 µM. With `O=C(c1ccco1)N(C(=O)N1CCCCC1)c1ccccc1` the GI50 was inactive: > 100 µM. `Nc1c(Br)cc(-c2cc(Br)c(N)c(Br)c2)cc1Br` was tested, and the GI50 was inactive: > 100 µM. For `CCOc1cc(CCNC)c2c(ccc3ccc(OC)c(O)c32)c1OC`, the GI50 was inactive: 15.8 µM. `O=C1OC(c2ccccc2)=N/C1=C/N1CCCC1C(=O)O` (configuration not stated) was tested, and the GI50 was inactive: > 100 µM. For `CC(C)(C)CC(C)(C)c1ccc(OCCOCC[N+](C)(C)Cc2ccccc2)cc1` [BENZETHONIUM CHLORIDE], the GI50 was inactive: 10.5 µM. With `CC(C)(C)c1ccc(OC(=O)Nc2ccc(O)c(C(=O)O)c2)cc1` the GI50 was inactive: > 100 µM. `Cc1nnc2n1N=C(CC(=O)c1ccc(O)cc1O)CN2N` was tested, and the GI50 was inactive: > 100 µM. `CC(NNC(=O)c1ccncc1)c1ccc(Cl)c(Cl)c1` (configuration not stated) was tested, and the GI50 was inactive: > 100 µM. `CC(C)(C)[Si](C)(C)O/N=C\c1ccc(O[Si](C)(C)C(C)(C)C)cc1` was tested, and the GI50 was inactive: 69 µM. With `Cc1ccc(S(=O)(=O)SCc2ccccc2CSS(=O)(=O)c2ccc(C)cc2)cc1` the GI50 was inactive: > 100 µM. With `CCOC(=O)/C(ON)=C(/CC/C(C(=O)OC)=C(\ON)C(=O)OCC)C(=O)OC` the GI50 was inactive: > 100 µM. With `Nc1nc(N)c(NC(=O)CCCO)c(=O)[nH]1` the GI50 was inactive: > 100 µM. `CN1CCN(CCCCNc2cc3c4ccccc4c(NCCCCN4CCN(C)CC4)cc3c3ccccc23)CC1` was tested, and the GI50 was inactive: 4.75 µM. With `CC(=O)NNc1nc(C)c(C(=O)/C=C/c2ccc(N(C)C)cc2)s1` the GI50 was inactive: > 100 µM. With `CC(N/N=C(\S)N1CCN(c2ccccn2)CC1)c1cccc[n+]1[O-]` (configuration not stated) the GI50 was inactive: 23.6 µM. In the case of `C=CCN1C(=O)/C(=C/c2ccc(Cl)cc2)N=C1SC/C=C/C`, the GI50 is reported as inactive: 75.2 µM. With `O=C1O/C(=C(/Cl)c2c3ccccc3cc3ccccc23)c2ccccc21` the GI50 was inactive: 39.7 µM. For `CC1=CCC[C@@]2(C)C(CC[C@@H]2C(C)/C=C/C(C)C)c2ccc(cc2C(=O)O)C[C@@H](O)CC1` (some centres not stated), the GI50 was inactive: 10.5 µM. `CC1(C)COC(c2ccc(C(F)(F)F)cc2C(O)c2ccc3ccccc3c2)=N1` (configuration not stated) was tested, and the GI50 was inactive: > 10 µM. In the case of `COc1ccccc1N1C(=O)CSC1c1cccc(Oc2ccccc2)c1` (configuration not stated), the GI50 is reported as inactive: 19.5 µM. In the case of `C/C=C1/CN2CCC34c5ccccc5N5C(=O)C(C6CC78c9ccccc9N9C(=O)C=CC(C%10CC7N6C/C%10=C/C)C98)=CC(C1CC23)C54` (configuration not stated), the GI50 is reported as inactive: 6.81 µM. For `O=C(CC1(O)C(=O)Nc2c(Cl)cc(Cl)cc21)c1ccc(Br)cc1Br` (configuration not stated), the GI50 was inactive: 25.9 µM. With `O=C(O)c1ccccc1NS(=O)(=O)c1ccc(Cl)cc1` the GI50 was inactive: > 100 µM. With `O=C(O)CC12C3C4C5C3C1C5C42` (configuration not stated) the GI50 was inactive: > 100 µM. For `CN(C)Cc1cc(C(=O)/C=C/c2ccc(Br)cc2)cc(CN(C)C)c1O`, the GI50 was inactive: 11 µM. `CCOc1ccccc1NC(=O)C(=O)C(/C(=N/N)C(=O)OC)c1nc2ccc([N+](=O)[O-])cc2nc1O` (configuration not stated) was tested, and the GI50 was inactive: > 100 µM. With `CC1=NOC(=O)/C1=C/c1cccc2ccccc12` the GI50 was inactive: > 100 µM. For `O=C(Nc1ccc(Cl)cc1)NS(=O)(=O)c1ccc2c(c1)CCC2` [SULOFENUR], the GI50 was inactive: 34.2 µM. In the case of `OC1=C2c3ccccc3NC2Oc2cc(F)ccc21` (configuration not stated), the GI50 is reported as inactive: 19 µM. For `COc1cc(N(CCC#N)CCC#N)ccc1/C=N\NC(=O)c1ccc(C)cc1`, the GI50 was inactive: > 100 µM. With `COc1ccc2[nH]c3c(c2c1)[C@H](c1ccccc1)C[C@@H]1C(=O)N(c2ccccc2)C(=O)[C@H]31` the GI50 was inactive: 91.2 µM. `C=C1C2CC3CCC2C(OC(=O)c2ccccc2C(=O)O)C13` (configuration not stated) was tested, and the GI50 was inactive: > 100 µM. In the case of `COc1ccc2[nH]c3c(c2c1)CCc1c(OC)cccc1-3`, the GI50 is reported as inactive: > 100 µM. For `Cn1c(=O)nc2n(-c3ccc(Cl)cc3)c3cc(Cl)ccc3nc-2c1=O`, the GI50 was inactive: 10.4 µM. For `CCN(C(=O)N[C@@H](Cc1ccccc1)C(=O)N[C@@H](CC(C)C)C(=O)NC)c1ccccc1`, the GI50 was inactive: > 100 µM. In the case of `CN(CCO)CC(=O)CC(O)(C(F)(F)F)C(F)(F)F`, the GI50 is reported as inactive: 37.2 µM. In the case of `COCN/C(N)=N/C#N`, the GI50 is reported as inactive: > 100 µM. In the case of `Cc1ccc(N(O)C(C)(C)C)cc1`, the GI50 is reported as inactive: > 100 µM. `CCN1C(=O)C(C)S/C1=N\NC(=O)CSc1nc2ccccc2c(=O)n1CC` (configuration not stated) was tested, and the GI50 was inactive: > 100 µM. `COc1ccc(C2=NNC(=O)c3ccccc3N2c2nc(-c3cccs3)nc3ccc(Br)cc23)cc1` was tested, and the GI50 was inactive: 32.7 µM. In the case of `CN1C(=O)C2C=C3CCCCC3=CC2N(C)C1=O` (configuration not stated), the GI50 is reported as inactive: > 100 µM. In the case of `NCCN1CC2CCC(CC2)C1`, the GI50 is reported as inactive: > 10 µM. In the case of `CCOP(=O)(OCC)C1C(=O)O[C@H]2CCCC[C@@H]12` (some centres not stated), the GI50 is reported as inactive: > 100 µM. For `Cc1cc(NCc2ccccc2)c2ccccc2[n+]1CCCCCCCCCC[n+]1c(C)cc(NCc2ccccc2)c2ccccc21.[O-][Cl+3]([O-])([O-])[O-].[O-][Cl+3]([O-])([O-])[O-]`, the GI50 was active: 0.805 µM. For `CCOC(=O)CCC(NC(=O)Cc1ccc(Oc2nc3ccccc3nc2-c2ccccc2)cc1)C(=O)OCC` (configuration not stated), the GI50 was inactive: > 100 µM. For `CN(C)C(=O)N1N[C@H](c2ccccc2)[C@@H]1c1ccccc1`, the GI50 was inactive: > 100 µM. In the case of `CCOC(=O)C1(Br)C(c2ccccc2)NC(=O)N(C2OC(COC(=O)c3ccccc3)C(OC(=O)c3ccccc3)C2OC(=O)c2ccccc2)C1(C)Br` (configuration not stated), the GI50 is reported as inactive: > 52.4 µM. With `c1ccc(Nc2nnc(Cn3ccc4ccccc43)s2)cc1` the GI50 was inactive: > 100 µM. For `COc1cc(Cc2nccc3cc(OC)c(OC)cc23)c(/N=N/N(C)C)cc1OC`, the GI50 was inactive: 20.7 µM. In the case of `Cc1sc2nc(-c3ccc(Cl)c([N+](=O)[O-])c3)c(/C=N/NC(=N)N)n2c1C`, the GI50 is reported as inactive: 1.54 µM. In the case of `OCCNCO`, the GI50 is reported as inactive: > 100 µM. With `Cc1cc(S(=O)(=O)Nc2nc3cccnc3[nH]2)c(S)cc1Cl` the GI50 was inactive: 67.6 µM. `Cc1nc(Nc2ccc([N+](=O)[O-])cc2)sc1C(/C=C/c1ccc(N(C)C)cc1)=N/NC(=O)c1ccccc1` was tested, and the GI50 was inactive: 65.9 µM. For `COc1cc(/C=C\c2ccc(C)cc2)cc(OC)c1OC`, the GI50 was active: 0.0108 µM. `N=C(N)NS(=O)(=O)c1ccc(NC(=O)c2cccc3c(NNc4ccc(S(N)(=O)=O)cc4)c4ccccc4nc23)cc1` was tested, and the GI50 was inactive: 81.3 µM. With `O=C(O)c1cc(-c2ccc3cc4c(cc3c2)OCO4)nc2ccccc12` the GI50 was inactive: 24.5 µM. In the case of `CC(C)(C)c1ccc(-c2nc3ccc(Cl)cc3c(=O)o2)cc1`, the GI50 is reported as inactive: 29 µM. For `NCCCc1c(-c2ccccc2)[nH]c(N)nc1=O`, the GI50 was inactive: > 100 µM. In the case of `O=C(N/C(=C/c1cccc([N+](=O)[O-])c1)c1nc2cc(Cl)ccc2[nH]1)c1ccccc1`, the GI50 is reported as inactive: 16.4 µM. In the case of `CCOC(=O)Nc1sc2c(c1C#N)CC(C)CC2` (configuration not stated), the GI50 is reported as inactive: 7.41 µM. `N=C(N)NS(=O)(=O)c1ccc(NC(=O)c2ccc3nc4ccccc4c(Nc4ccc(S(=O)(=O)N=C(N)N)cc4)c3c2)cc1` was tested, and the GI50 was inactive: > 100 µM. In the case of `CC(CN(C)C)C(=O)c1ccccc1C(=O)O` (configuration not stated), the GI50 is reported as inactive: 44.4 µM. For `Cc1cc(-c2ccc[nH]2)on1`, the GI50 was inactive: > 100 µM. In the case of `C/C(=C\CNc1ncnc2c1ncn2CCC(=O)OC(C)(C)C)CO`, the GI50 is reported as inactive: > 100 µM.
